# This is one part of the list. Single values are uncertain, as repeats are few or missing.
# Tested on: A101D
# Assay: cell count relative to DMSO control; melanoma cells; higher = more viable cells
# Conditions: library dose: low library concentration; 72 h
# 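Also: cell number obtained by counting DAPI-stained nuclei in high-throughput microscope images with image analysis software, screen run in 1,536-well plates.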
row,Structure (SMILES),cell count [%]
1,"CN(c1ncccc1CNc1nc(Nc2ccc3c(c2)CC(=O)N3)ncc1C(F)(F)F)S(C)(=O)=O + O=S(=O)(c1ccccc1)N(CC(F)(F)F)c1ccc(C(O)(C(F)(F)F)C(F)(F)F)cc1 [T0901317] (first compound 0.08 µM, partner dose 1.4 µM)",83
2,"CCCS(=O)(=O)Nc1ccc(F)c(C(=O)c2c[nH]c3ncc(Cl)cc23)c1F + O=C1NC(=O)/C(=C/c2ccc(-c3ccc(F)cc3O)o2)S1 [AS252424] (first compound 0.08 µM, partner dose 1 µM)",79.4
3,"NC1(c2ccc(-c3nc4ccn5c(=O)[nH]nc5c4cc3-c3ccccc3)cc2)CCC1 + COc1cc2ncnc(Nc3ccc(Oc4ccccc4)cc3)c2cc1OC [SrcI1] (first compound 0.4 µM, partner dose 2 µM)",87.4
4,"C=C(c1ccc(C(=O)O)cc1)c1cc2c(cc1C)C(C)(C)CCC2(C)C [Bexarotene] + COc1cc2ncnc(Nc3ccc(Oc4ccccc4)cc3)c2cc1OC [SrcI1] (first compound 2 µM, partner dose 2 µM)",119
5,"C=C(c1ccc(C(=O)O)cc1)c1cc2c(cc1C)C(C)(C)CCC2(C)C [Bexarotene] + O=S(=O)(c1ccccc1)N(CC(F)(F)F)c1ccc(C(O)(C(F)(F)F)C(F)(F)F)cc1 [T0901317] (first compound 2 µM, partner dose 1.4 µM)",97.3
6,"C=C(c1ccc(C(=O)O)cc1)c1cc2c(cc1C)C(C)(C)CCC2(C)C [Bexarotene] + Oc1cc(-c2nc(-c3ccccc3)[nH]c2-c2ccncc2)ccc1Cl [L779450] (first compound 2 µM, partner dose 0.2 µM)",110

# Source: the supplement of paper PMC4604168 (melanoma cell lines)
